# This continues a long series; more values of the same kind are listed elsewhere.
# Assay: Ex vivo biodistribution
# Assay type: in vivo, wild-type FVB/NJ mice
# Description: To further understand the pharmacokinetics of [^18F]2, ex vivo biodistribution was performed with different groups of mice with and without co-administration of 2. Animals were sacrificed at 5 min, 10 min and 120 min post-injection of [^18F]2. Vital organs and tissues were collected and uptake of the [^18F]2 was measured as SUV after counting the radioactivity in each harvested tissue. […] Additionally, observed higher uptake of [^18F]2 in pancreas could potentially be extended to beta cell mass imaging as a separate study. […] Therefore, it would be valuable to evaluate PET [^18F]2 in pathological conditions to finally evaluate its selectivity, binding affinity, and retention in vivo in the presence and absence of self-blocking as a future study.
# Uptake of PET probe [^18F]2 (1.40 ± 0.61 MBq) was assessed with and without co-administration of 2 in 10–13-week-old wild-type FVB/NJ mice (The Jackson Laboratory, Bar Harbor, ME) after tail vein injection followed by PET imaging at 5 min, 10 min, 15 min, 20 min, 25 min, 30 min, 40 min, 50 min, 60 min and 120 min post injection. Additionally, ex vivo biodistribution was performed at 5 min, 10 min and 120 min post tail vein injection. To prepare [^18F]2 formulation for injection, 0.76 ± 0.48 µg (2.01 ± 1.27 nmol) of [^18F]2 was formulated in 10% ethanol/ 90% isotonic saline. For the blocking experiment, 20.21 ± 1.63 µg (53.75 ± 4.33 nmol) of 2 in DMSO was added to [^18F]2 (Am of 87.27 ± 77.26 (n = 13) GBq/µmole, having 0.46 ± 0.31 µg or 1.23 ± 0.83 nmol of nonradioactive 2 in it) in the final formulation volume of ~ 100 µL. This study had 12 wild type FVB/NJ male mice with body weight 31.8 ± 2.7 g and 10 wild type FVB/NJ female mice with body weight 27.0 ± 3.6 g at the time of imaging. All the animals were anesthetized for tail vein injection and PET imaging using an induction dose of 3% isoflurane and a maintenance dose of 2–3% isoflurane, which was administered via isoflurane vaporizer. All anesthetized animals were kept warm during imaging using a heat supported imaging chamber. For ex vivo biodistribution studies, animals were sacrificed at 5 min, 10 min and 120 min post-injection by cervical dislocation and tissues were harvested for gamma counting. For PET imaging studies, each animal underwent a 60 min dynamic PET scan (Framing Sequence: 1 × 10 s, 4 × 15 s, 8 × 30 s, 5 × 60 s, 4 × 300 s, 3 × 600 s) immediately post injection followed by 10 min static PET scan at 120 min post-injection on small animal micro-PET/X-ray system, Genesys 4 (Sofie BioSystems, Dulles, VA, USA). The PET images were reconstructed using Genesys 4 imaging software installed on the imaging system. The obtained PET images were visualized and analyzed using image analysis software, “Amide's a medical image data examiner-AMIDE”[53]. PET images were normalized to the standardized uptake value (SUV) where; SUV=ConcentrationofdoseintissueμCi/g×Weightoftheanimal(g)/Injecteddose(μCi).
smiles,measurement,setting,value
O=C(Nc1cnccc1-c1ccc([18F])cc1)c1ccnc(NC(=O)C2CC2)c1 [[^18F]2],"SUV, Average ± SD","Brain stem, 5 min post-injection, [^18F]2 + 20 µg of 2",0.66 ± 0.03
same,"SUV, Average ± SD","Brain stem, 5 min post-injection, [^18F]2 alone",0.81 ± 0.49
same,"SUV, Average ± SD","Brain stem, 10 min post-injection, [^18F]2 + 20 µg of 2",0.44 ± 0.15
same,"SUV, Average ± SD","Brain stem, 10 min post-injection, [^18F]2 alone",0.34 ± 0.06
same,"SUV, Average ± SD","Brain stem, 120 min post-injection, [^18F]2 + 20 µg of 2",0.22 ± 0.04
same,"SUV, Average ± SD","Brain stem, 120 min post-injection, [^18F]2 alone",0.06 ± 0.03
same,"SUV, Average ± SD","Cecum, 5 min post-injection, [^18F]2 + 20 µg of 2",0.73 ± 0.03
same,"SUV, Average ± SD","Cecum, 5 min post-injection, [^18F]2 alone",0.54 ± 0.07
same,"SUV, Average ± SD","Cecum, 10 min post-injection, [^18F]2 + 20 µg of 2",0.93 ± 0.16
same,"SUV, Average ± SD","Cecum, 10 min post-injection, [^18F]2 alone",0.54 ± 0.03
same,"SUV, Average ± SD","Cecum, 120 min post-injection, [^18F]2 + 20 µg of 2",1.79 ± 0.60
same,"SUV, Average ± SD","Cecum, 120 min post-injection, [^18F]2 alone",4.67 ± 4.60
same,"SUV, Average ± SD","Cerebellum, 5 min post-injection, [^18F]2 + 20 µg of 2",0.62 ± 0.03
same,"SUV, Average ± SD","Cerebellum, 5 min post-injection, [^18F]2 alone",0.75 ± 0.49
same,"SUV, Average ± SD","Cerebellum, 10 min post-injection, [^18F]2 + 20 µg of 2",0.39 ± 0.15
same,"SUV, Average ± SD","Cerebellum, 10 min post-injection, [^18F]2 alone",0.30 ± 0.05
same,"SUV, Average ± SD","Cerebellum, 120 min post-injection, [^18F]2 + 20 µg of 2",0.18 ± 0.03
same,"SUV, Average ± SD","Cerebellum, 120 min post-injection, [^18F]2 alone",0.05 ± 0.02
same,"SUV, Average ± SD","Cortex, 5 min post-injection, [^18F]2 + 20 µg of 2",0.65 ± 0.02
same,"SUV, Average ± SD","Cortex, 5 min post-injection, [^18F]2 alone",0.79 ± 0.50
same,"SUV, Average ± SD","Cortex, 10 min post-injection, [^18F]2 + 20 µg of 2",0.43 ± 0.10
same,"SUV, Average ± SD","Cortex, 10 min post-injection, [^18F]2 alone",0.32 ± 0.07
same,"SUV, Average ± SD","Cortex, 120 min post-injection, [^18F]2 + 20 µg of 2",0.19 ± 0.03
same,"SUV, Average ± SD","Cortex, 120 min post-injection, [^18F]2 alone",0.05 ± 0.03
same,"SUV, Average ± SD","Eyes, 5 min post-injection, [^18F]2 + 20 µg of 2",0.35 ± 0.05
same,"SUV, Average ± SD","Eyes, 5 min post-injection, [^18F]2 alone",0.30 ± 0.12
same,"SUV, Average ± SD","Eyes, 10 min post-injection, [^18F]2 + 20 µg of 2",0.36 ± 0.04
same,"SUV, Average ± SD","Eyes, 10 min post-injection, [^18F]2 alone",0.20 ± 0.03
same,"SUV, Average ± SD","Eyes, 120 min post-injection, [^18F]2 + 20 µg of 2",0.29 ± 0.09
same,"SUV, Average ± SD","Feces, 5 min post-injection, [^18F]2 + 20 µg of 2",0.79 ± 0.17
same,"SUV, Average ± SD","Feces, 5 min post-injection, [^18F]2 alone",0.36 ± 0.12
same,"SUV, Average ± SD","Feces, 10 min post-injection, [^18F]2 + 20 µg of 2",1.06 ± 0.21
same,"SUV, Average ± SD","Feces, 10 min post-injection, [^18F]2 alone",0.51 ± 0.05
same,"SUV, Average ± SD","Feces, 120 min post-injection, [^18F]2 + 20 µg of 2",3.25 ± 0.96
same,"SUV, Average ± SD","Feces, 120 min post-injection, [^18F]2 alone",2.77 ± 0.79
same,"SUV, Average ± SD","Hippocampus, 5 min post-injection, [^18F]2 + 20 µg of 2",0.78 ± 0.06
same,"SUV, Average ± SD","Hippocampus, 5 min post-injection, [^18F]2 alone",1.14 ± 0.74
same,"SUV, Average ± SD","Hippocampus, 10 min post-injection, [^18F]2 + 20 µg of 2",0.45 ± 0.18
same,"SUV, Average ± SD","Hippocampus, 10 min post-injection, [^18F]2 alone",0.47 ± 0.15
same,"SUV, Average ± SD","Hippocampus, 120 min post-injection, [^18F]2 + 20 µg of 2",0.24 ± 0.09
same,"SUV, Average ± SD","Hippocampus, 120 min post-injection, [^18F]2 alone",0.08 ± 0.05
same,"SUV, Average ± SD","LI (large intestine), 5 min post-injection, [^18F]2 + 20 µg of 2",1.47 ± 0.17
same,"SUV, Average ± SD","LI (large intestine), 5 min post-injection, [^18F]2 alone",1.09 ± 0.45
same,"SUV, Average ± SD","LI (large intestine), 10 min post-injection, [^18F]2 + 20 µg of 2",1.48 ± 0.31
same,"SUV, Average ± SD","LI (large intestine), 10 min post-injection, [^18F]2 alone",0.80 ± 0.06
same,"SUV, Average ± SD","LI (large intestine), 120 min post-injection, [^18F]2 + 20 µg of 2",1.22 ± 0.63
same,"SUV, Average ± SD","LI (large intestine), 120 min post-injection, [^18F]2 alone",0.57 ± 0.32
same,"SUV, Average ± SD","SI (small intestine), 5 min post-injection, [^18F]2 + 20 µg of 2",3.12 ± 0.27
same,"SUV, Average ± SD","SI (small intestine), 5 min post-injection, [^18F]2 alone",1.94 ± 1.12
same,"SUV, Average ± SD","SI (small intestine), 10 min post-injection, [^18F]2 + 20 µg of 2",3.22 ± 0.15
same,"SUV, Average ± SD","SI (small intestine), 10 min post-injection, [^18F]2 alone",3.33 ± 0.49
same,"SUV, Average ± SD","SI (small intestine), 120 min post-injection, [^18F]2 + 20 µg of 2",10.72 ± 1.95
same,"SUV, Average ± SD","SI (small intestine), 120 min post-injection, [^18F]2 alone",5.22 ± 0.09
same,"SUV, Average ± SD","Thalamus, 5 min post-injection, [^18F]2 + 20 µg of 2",0.65 ± 0.04
same,"SUV, Average ± SD","Thalamus, 5 min post-injection, [^18F]2 alone",0.84 ± 0.51
same,"SUV, Average ± SD","Thalamus, 10 min post-injection, [^18F]2 + 20 µg of 2",0.44 ± 0.10
same,"SUV, Average ± SD","Thalamus, 10 min post-injection, [^18F]2 alone",0.34 ± 0.07
same,"SUV, Average ± SD","Thalamus, 120 min post-injection, [^18F]2 + 20 µg of 2",0.20 ± 0.04
same,"SUV, Average ± SD","Thalamus, 120 min post-injection, [^18F]2 alone",0.05 ± 0.03

# — PMC11237012, “Synthesis and preliminary evaluation of novel PET probes for GSK-3 imaging” (Scientific Reports, 2024)
